Results on 32 variants are retold here after the GPR68 mutational scans of Howard et al. (2025).

Scores with a large standard error are left out. Not listed are two conditions whose scores span a narrow range. Names with del lack the residues named; names with ins carry added residues between the positions named. For some assays here: The concentration of ogerin is not given here.

B1: GPR68, Q15743 (parent)
chain: MGNITADNSSMSCTIDHTIHQTLAPVVYVTVLVVGFPANCLSLYFGYLQIKARNELGVYLCNLTVADLFYICSLPFWLQYVLQHDNWSHGDLSCQVCGILLYENIYISVGFLCCISVDRYLAVAHPFRFHQFRTLKAAVGVSVVIWAKELLTSIYFLMHEEVIEDENQHRVCFEHYPIQAWQRAINYYRFLVGFLFPICLLLASYQGILRAVRRSHGTQKSRKDQIQRLVLSTVVIFLACFLPYHVLLLVRSVWEASCDFAKGVFNAYHFSLLLTSFNCVADPVLYCFVSETTHRDLARLRGACLAFLTCSRTGRAREAYPLGAPEASGKSGAQGEEPELLTKLHPAFQTPNSPGSGGFPTGRLA

Variants of B1 are the subject of data set [1]. In words: cAMP reporter score (Enrich2 score, wild type = 0); higher = more signal; HEK293T, FACS bins.
The variants in data set [2] derive from B1. Briefly: surface expression score (Enrich2 score, wild type = 0); higher = more signal; HEK293T, FACS bins.

S252R: the cAMP reporter score is -1.29 in data set [1] (pH 5.5); -0.451 in data set [1] (pH 6); -1.28 in data set [1] (pH 6, modulator: ogerin); -0.652 in data set [1] (pH 6.5, modulator: ogerin). The surface expression score in data set [2] was -1.43.
The corresponding values for S252N are -0.538, -1.17, -0.845, -1.44 and -0.214.
Regarding S252A, the cAMP reporter score in data set [1] (pH 5.5) is 0.532; in data set [1] (pH 6), 2.19; in data set [1] (pH 6, modulator: ogerin), 0.008; in data set [1] (pH 6.5, modulator: ogerin), 2.26. In data set [2], the surface expression score was -1.22.
For the variant S252P, the cAMP reporter score in data set [1] (pH 5.5) is -0.641; in data set [1] (pH 6), -1.27; in data set [1] (pH 6, modulator: ogerin) it was -1.37; in data set [1] (pH 6.5, modulator: ogerin), -0.959.
For the variant S252H, the cAMP reporter score is -0.211 in data set [1] (pH 5.5); -0.896 in data set [1] (pH 6); -1.46 in data set [1] (pH 6, modulator: ogerin); -1.15 in data set [1] (pH 6.5, modulator: ogerin). Also, the surface expression score in data set [2] was -1.34.
The matching figures for I226_Q227insGSG: -0.977, -1.13, -0.803, -0.648 and 0.215.
As to Q227_R228insGS, the cAMP reporter score was -1.53 in data set [1] (pH 5.5); -1.34 in data set [1] (pH 6); -0.929 in data set [1] (pH 6, modulator: ogerin); 0.008 in data set [1] (pH 6.5, modulator: ogerin). Further, the surface expression score in data set [2] is 1.22.
Turning to L247_L248del, the cAMP reporter score in data set [1] (pH 5.5) is -1.36; in data set [1] (pH 6), -0.496; in data set [1] (pH 6, modulator: ogerin) it was -1.47; in data set [1] (pH 6.5, modulator: ogerin), -1.07. Also, the surface expression score in data set [2] is -2.58.
R228_L229insGS: the cAMP reporter score in data set [1] (pH 5.5) is -1.76; in data set [1] (pH 6.5, modulator: ogerin) it was -0.038.
For the variant I226W, the cAMP reporter score is -0.828 in data set [1] (pH 5.5); -0.909 in data set [1] (pH 6); -1.02 in data set [1] (pH 6, modulator: ogerin); -0.526 in data set [1] (pH 6.5, modulator: ogerin). Moreover, the surface expression score in data set [2] was -0.052.
For I226A, the cAMP reporter score in data set [1] (pH 5.5) is -1.85; in data set [1] (pH 6), -0.781; in data set [1] (pH 6, modulator: ogerin), -0.747; in data set [1] (pH 6.5, modulator: ogerin) it was -0.56. Also, in data set [2], the surface expression score worked out at 1.67.
Regarding I226Y, the cAMP reporter score is -1.52 in data set [1] (pH 5.5); -1.26 in data set [1] (pH 6); -2.35 in data set [1] (pH 6, modulator: ogerin); -0.986 in data set [1] (pH 6.5, modulator: ogerin). Further, the surface expression score in data set [2] turned out to be 0.245.
The matching figures for I226R: -0.753, 0.03, -1.31, -0.972 and 0.033.
I226K: the cAMP reporter score in data set [1] (pH 5.5) was -0.978; in data set [1] (pH 6.5, modulator: ogerin), -0.97. Moreover, in data set [2], the surface expression score was -1.34.
For the variant I226Q, the cAMP reporter score in data set [1] (pH 5.5) was -1.86; in data set [1] (pH 6), -1.19; in data set [1] (pH 6, modulator: ogerin), -1.47; in data set [1] (pH 6.5, modulator: ogerin), -1.21. For the same variant, in data set [2], the surface expression score is 0.112.
Take I226C: the cAMP reporter score in data set [1] (pH 5.5) is -0.208; in data set [1] (pH 6), -1.76; in data set [1] (pH 6, modulator: ogerin) it was -0.489; in data set [1] (pH 6.5, modulator: ogerin) it was -0.608. For the same variant, the surface expression score in data set [2] was determined as 0.692.
As for I226T, the cAMP reporter score was -0.845 in data set [1] (pH 5.5); -1.55 in data set [1] (pH 6); -0.58 in data set [1] (pH 6, modulator: ogerin). Besides, in data set [2], the surface expression score turned out to be 0.479.
As for I226E, the cAMP reporter score in data set [1] (pH 5.5) was -1.6; in data set [1] (pH 6) it was -1.7; in data set [1] (pH 6, modulator: ogerin), -0.79; in data set [1] (pH 6.5, modulator: ogerin) it was -1.21. In data set [2], the surface expression score was -0.626.
As to I226P, the cAMP reporter score in data set [1] (pH 5.5) is -0.976; in data set [1] (pH 6, modulator: ogerin) it was -1.06; in data set [1] (pH 6.5, modulator: ogerin), -1.48. Further, the surface expression score in data set [2] is -0.042.
For I226S, the cAMP reporter score in data set [1] (pH 5.5) was -1.06; in data set [1] (pH 6), -1.37; in data set [1] (pH 6, modulator: ogerin), -0.992; in data set [1] (pH 6.5, modulator: ogerin), -1.05. For the same variant, the surface expression score in data set [2] amounted to 0.3.
In the case of I226N, the cAMP reporter score in data set [1] (pH 5.5) is -1.47; in data set [1] (pH 6), -0.194; in data set [1] (pH 6, modulator: ogerin) it was -1.65; in data set [1] (pH 6.5, modulator: ogerin), -0.883. The surface expression score in data set [2] was found to be 0.67.
On to I226G, for which the cAMP reporter score in data set [1] (pH 5.5) was -0.849; in data set [1] (pH 6) it was -0.141; in data set [1] (pH 6.5, modulator: ogerin) it was -1.55. For the same variant, the surface expression score in data set [2] was 0.277.
On to I226F, for which the cAMP reporter score in data set [1] (pH 5.5) was -1.39; in data set [1] (pH 6), -1.14; in data set [1] (pH 6, modulator: ogerin), -1.86; in data set [1] (pH 6.5, modulator: ogerin) it was -1.04. The surface expression score in data set [2] was -0.573.
The corresponding values for I226V are -0.77, -0.571, -0.469, -0.477 and -0.146.
For I226L, the cAMP reporter score in data set [1] (pH 5.5) was 0.543; in data set [1] (pH 6), 0.572; in data set [1] (pH 6, modulator: ogerin), -0.228; in data set [1] (pH 6.5, modulator: ogerin) it was 0.492. The surface expression score in data set [2] is -0.116.
Regarding I226D, the cAMP reporter score is -1.6 in data set [1] (pH 5.5); -1.04 in data set [1] (pH 6); -1.17 in data set [1] (pH 6.5, modulator: ogerin). In data set [2], the surface expression score is -0.582.
As to I226M, the cAMP reporter score is -0.884 in data set [1] (pH 5.5); -1.16 in data set [1] (pH 6); -1.19 in data set [1] (pH 6, modulator: ogerin); -1.57 in data set [1] (pH 6.5, modulator: ogerin). Further, the surface expression score in data set [2] was found to be 0.141.
V235N: the cAMP reporter score in data set [1] (pH 5.5) was -0.845; in data set [1] (pH 6, modulator: ogerin), -0.621; in data set [1] (pH 6.5, modulator: ogerin), -0.232. In data set [2], the surface expression score is -1.76.
For V235L, the cAMP reporter score in data set [1] (pH 5.5) was 0.882; in data set [1] (pH 6), 1.53; in data set [1] (pH 6, modulator: ogerin), 0.971; in data set [1] (pH 6.5, modulator: ogerin), 1.74. Moreover, in data set [2], the surface expression score was determined as 1.06.
Regarding V235Q, the cAMP reporter score in data set [1] (pH 5.5) was -1.22; in data set [1] (pH 6), -1.31; in data set [1] (pH 6, modulator: ogerin), -0.945; in data set [1] (pH 6.5, modulator: ogerin) it was -1.73. In data set [2], the surface expression score is -1.7.
On to V235W, for which the cAMP reporter score was -0.023 in data set [1] (pH 5.5); -1.08 in data set [1] (pH 6); -0.306 in data set [1] (pH 6, modulator: ogerin); -0.326 in data set [1] (pH 6.5, modulator: ogerin). Further, in data set [2], the surface expression score is -0.938.
With V235F, the cAMP reporter score is 0.135 in data set [1] (pH 5.5); 0.064 in data set [1] (pH 6); -0.558 in data set [1] (pH 6, modulator: ogerin); 0.06 in data set [1] (pH 6.5, modulator: ogerin). Moreover, the surface expression score in data set [2] was -0.195.
